# Measurements published in the supplement of paper PMC12632987.
# The full ranking holds about 4,500 sequences; the median of “median log2 fold change of GCK-ALFA target abundance (FLAG IP / Myc IP barcode read proportion)” is about 0.078, and the lowest 2% start at about -0.6. The list shows a part of the results.
# B1: GBRAP_184_5033 (protein)
# chain: KVLEKEIKAKNKEELEEKLKKLAEEVKGSKADLIVLLDIENPTKEKVKLAIEGLGAIKKAGYVSSVTIGFENELSEELTDVALETADKEGVKVVLPISDE
# B2: GBRAP_125_3123 (protein)
# chain: SRAADLAALAELLAALGLDAEDVAEAVALAAEFSIRGTLAAVARALGWEELADAIEKLTEEEARAVVREVVARIRAHPELTPEEVRALLLAVAREAVAAA
# B3: GBRAP_35_5608 (protein)
# chain: DSLKETAEMLVATIEDATLLVPEAPVDTLVAITNSLIESARALIKELTDDKEALEKVIEAMEKLLEALKKHHGDNPKAQEAIKRVEELIKEGRERLKAIK
# B4: GBRAP_128_3485 (protein)
# chain: SVEEAVERARELMERIKESSLEEVREIARELARLLGEADDEAREAITEVVLERLKELSAEKLEILADVLRELRPELDPLGAEQAAEIEVEALNEAEEKEE
# B5: GBRAP_35_5555 (protein)
# chain: DSDEEIIEMMTNTAEDALLTIDTIPFDTAFAIVEKIAKAALEILKKEKENVEGMKKLAEAVIEALEALIKRAKAEGAPQEKIDRLEKLLEEIKKELEKIK
# B6: GBRAP_184_5267 (protein)
# chain: MVKEFEIEASNEEEIKEKLEKIAEEVKDTKADLIISAKIENPTEEKIKTLMETLGKIKEAGYASKITVGIDSELSEEVIDLAFELADKYGINVTVALSEE
# B7: GBRAP_184_5307 (protein)
# chain: TVLEVTIEADDAETAIKQINAAAAAAKAAGAKLKLTLYLSNVDVEGFKKIADLLKELKDQGILEDAIVHVLDEKTEEEVDKLVKIADEAGVRLVVALSDE
# B8: GBRAP_52_6310 (protein)
# chain: SAARLRALAEELLALMRAGDREGARALAREAVATLSPEELLALARELARLAAEADEEELDALAELVDILEDVAEEAGVDEEVIAEMLGIVTTALYEAALR
# B9: GBRAP_52_6035 (protein)
# chain: MEERMRELARRIVELLLAGREEEARRLIREAVETLSEEELKLLGEELARLAREAAPEDLDAIMEAAFLLADALEEGGYDEVLADDLLARVAAAAVANLQA
# B10: GBRAP_128_3337 (protein)
# chain: VDEEKLEKVEKLVKEIIKADKEEAKKLAEELAELLVELSLEEVEAAAEIIRKYIPKLSAEQLEILADVLRKYLPKFTPEQQLIINDLIVDLLNAAEEKEE
# B11: GBRAP_128_3178 (protein)
# chain: SVEEVKEETRKKMEEIKNSSPEEAKKIATELFESLLTKSLEEVEAAAEVIEEQLPELSAEHLEILADVGRELLPKYTPEKQEIVAGVIVDALNEAEEKEE
# B12: GBRAP_131_3609 (protein)
# chain: AKSLLVTIENPKSVEELLAQVDAAIAEARARGADVLVINLVNVTEEQYDAALDHADERQAELEAERGMRLVVLPPGTTLEQAQQVLRALALEVEEEKEEE
# B13: GBRAP_78_6652 (protein)
# chain: ELEELLDKAIDIVDQAAKAAQQLDADTQNEVLGHLVDAATYLEEARENGGDLENLEKALEHVKKALEILKAQDTEQAKALAKLLEEAIETLEKAIELKKK
# B14: GBRAP_160_4657 (protein)
# chain: SPEIEKLKEEIEEIFDEAKEMVVGETHEERVAIARVMVGDVVLEASESPEISEEAEDEIDEVGRALVAELEANPDWTDEEVLAAIDEALEKVLEIIEKHS
# B15: GBRAP_14_3792 (protein)
# chain: MEKIRAILEEMIERIMELIEDLPADLRAALRAALTALADETLARIEATGDLDAAMDEFRERAVAATAEILADLPAETRANAQAIVATEADNAEVEIDEAA
# B16: GBRAP_160_4577 (protein)
# chain: SEEMEKLIKEIKEITEETLEWLDDETYEQRKAIVRVTVGDILLLLEENPEVSEELLEEAAKLGDELIATIDANPDLTAEEIKKLVKEMTEKIIKLIKEES
# B17: GBRAP_52_6034 (protein)
# chain: MRERMRRLAEEAVALALAGDEEGAKALIKEAVETLSEEELKLLGEELARLAREAAPEDLDAIMEVAFWLADALIEAGYDEVFADDLEARVARAAVENLQA
# B18: GBRAP_78_6574 (protein)
# chain: EIEKLIDEAIEHLNRAATALAALNTPEAQDILAEVVDALSYLLEAEENGFDLELLEKAKKHVEKAIELVDKVPKPEYEAIRKELEEALKLLEEAIKLVKE
# B19: GBRAP_52_5939 (protein)
# chain: MEEEIRRLVDELIALVKAGKLEEARALAREIVETWSDEELRRFIDVLAERARTAPLEDLPYILELAEIFAEELEEAGRDEVLADELLARVSAAAYENEQK
# B20: GBRAP_52_5896 (protein)
# chain: KAEEVLELLKKAVDAVEAGKLEEARKYIREAVKVAVELSEEEIREVAREAAKYAAEKSPEVFERFLELVLELLDEEEDLTEDEEAVLEILAAELARIYLA
# B21: GBRAP_184_5196 (protein)
# chain: KITEVELKAENLEEVKEKMEEVLEIAKKEKAELLLILDLKEVTLEMAEVIMNTLKEIKEKGYSPKITLEVVGKMSEEVIDKLIELADEAGVNLTLALDEE
# B22: GBRAP_160_4482 (protein)
# chain: SEKLEKAKEEVKELIEEMVEALLETKDDSRLGIARAYAGDIVETALELGVISEEEAEELLKLAEEGFEKIVKALEEGEEAMKKAAEELKKKIFEFLEKKS
# B23: GBRAP_11_2642 (protein)
# chain: KKEKLKEALKLAKEAIKALKKLLKEGVDNEELWKKIKELLEKLAKLVEKYADESLKKLVKIAKELLKKAEEDPENKKEYVENLLAALRVLAAELEELIEE
# B24: GBRAP_52_6272 (protein)
# chain: MEEEAKKLAEEFLDVVLNKSEEEIKKFAKELVENNSQELIAKTLEIVVKMSEELNLEEIEKVLDAFLILEDELEEAGKDPLPAEDAAARIAGLALEKEAE
# B25: GBRAP_52_6329 (protein)
# chain: SREEVERLAEELYRAIEAGDEERAKELAERAVEELSSEEILELTRIVAERVSKEGYEVQVRFTEVAEYLAELVEEKRGDERTAAEILGIVARTLYAAELA
# B26: GBRAP_160_3975 (protein)
# chain: MEKVEELLKEIKELVEETIELIEGESFEERLTIIKMTMGEIILLVDESEEVSDEAEEKVAEIGDETIEYIESHPELTDEEIKELLKETEEKIKEVILEDS
# B27: GBRAP_35_5584 (protein)
# chain: DIEQIILDTVRDWAEATIEAIKEEDDETVISLTKAFIRTVKLAIEDLKNNKKALEEIIKEIEKVIKALEKYRSDNEEIKKLIKELKKLKKEAEKLAKENE
# B28: GBRAP_160_3991 (protein)
# chain: SEEIEKLKEEFKKLFDEMLELAEGESPEERLAVVRVMMGEVILLAEESGVVSDEAEEEIAKIMDELVATVEANPDMSMEELKALVEEALKKIFEVIDKYS
# B29: GBRAP_160_4289 (protein)
# chain: EEEAEKLKKEVEEIAKETIEMMKGETREERVTLVRVAGGEVAWLLSENPNISDETVEKVLKIWDEVAETIEKNPNLTDEEIEELIEKAVEEAKKIIEEEY
# Molecular target: GABARAP, O95166
# Sequence (O95166 whole entry, the tested form may be a part): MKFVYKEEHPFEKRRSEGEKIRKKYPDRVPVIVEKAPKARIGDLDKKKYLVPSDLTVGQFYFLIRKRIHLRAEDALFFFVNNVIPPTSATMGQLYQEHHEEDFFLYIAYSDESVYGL
# Assay: median log2 fold change of GCK-ALFA target abundance (FLAG IP / Myc IP barcode read proportion) (log2 ratio); each designed protein is fused to an ALFA-tag nanobody in HEK293 cells to bring the named protein to FLAG-tagged glucokinase (GCK); Myc marks an untargeted standard; higher = target protein stabilised (more abundant)
# Details: target protein: 3xFLAG-MCP-GCK-ALFA reporter; HEK293 landing pad (RPLP)
# In short: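 Sequencing of reverse-transcribed, amplified circular RNA barcodes from anti-FLAG and anti-Myc immunoprecipitates provided the readout for an ALFA-nanobody-fused binder library recombined into HEK293 landing-pad cells. Those cells were induced with 2 μg mL^−1 doxycycline, transfected with a plasmid expressing a FLAG-tagged target and a Myc-tagged standard, and lysed after 48 h. Target abundance is the per-binder median log2 ratio of FLAG to Myc barcode read proportions. Only barcodes at a proportion of ≥10^−7 in both replicates and binders with ≥3 barcodes per replicate were kept, with a 10^−6 pseudocount added before the two replicates were pooled.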
row,Binder,median log2 fold change
1,B1,-0.000909
2,B2,-0.572
3,B3,-0.472
4,B4,0.0482
5,B5,0.0546
6,B6,0.0951
7,B7,-0.0236
8,B8,-0.0944
9,B9,-0.612
10,B10,0.23
11,B11,0.192
12,B12,0.0501
13,B13,0.22
14,B14,-0.153
15,B15,0.203
16,B16,-0.0624
17,B17,-0.573
18,B18,0.172
19,B19,-0.119
20,B20,-0.14
21,B21,0.0214
22,B22,0.259
23,B23,-0.358
24,B24,0.138
25,B25,0.164
26,B26,-0.342
27,B27,0.136
28,B28,-0.567
29,B29,-0.297
